Screen size: about 46,000 compounds; about 60 (0.1%) were called active. Another 3% or so got no clear call; they are omitted. The call rests on the fitted dose curve; in most records, active means well fitted inhibition curve with a large enough effect; inconclusive means small, poorly fitted or top-dose-only effect; inactive means no such curve, though single readings can be large or run the other way. The list shows a part of the results.

The values that follow come from PubChem BioAssay AID1963576 (National Center for Advancing Translational Sciences (NCATS), 2024).

This test is described as follows: Primary qHTS assay for Inhibitors of ovarian cancer metastasis using an organotypic tumor microenvironment (TME) model. Further: nearly all actives have a fitted effect of over 65% in size.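 On activity change, negative = inhibition: plate controls were DMSO wells for no effect and tomatine positive control wells for full effect.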 As to conditions: SKOV3ip1-GFP adhesion/invasion on 3D omental model, fluorescence; series mostly up to 45.8 µM; activity change, negative = inhibition: at the top concentration. The essentials: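 qHTS, 4-pt dose (0.36-46 umol/L); SKOV3ip1-GFP, 1,200 cells/well, no FBS; primary omental fibroblast/mesothelial co-culture 48 h pre-grown; 2 h RT + 16 h 37 C; PBS wash, 4% PFA; GFP count 488/509 nm.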
In general terms: Quantitative high-throughput screening tests each substance at several concentrations.
With `NC(=O)c1cccc(-c2cccc(OC(=O)NC3CCCCC3)c2)c1`, the “activity change, negative = inhibition” value was inactive: -6.48%.

Consider `CC1CCN(c2ccc(-c3cccc(NS(=O)(=O)c4ccc(F)cc4F)c3)nn2)CC1`, for which the “activity change, negative = inhibition” value is inactive: 1%.

As to `COc1ccc(N(C)C(=O)Cn2cc(S(=O)(=O)N3CCN(c4ccccc4F)CC3)c3ccccc3c2=O)c(OC)c1`, the “activity change, negative = inhibition” value is inactive: -2.77%.

For the compound `Cc1[nH]c(=O)c(C#N)cc1-c1ccc2nccn2c1`, the “activity change, negative = inhibition” value was inactive: -23.3%.

With `Cc1cc2c(cc1S(=O)(=O)Nc1cc(C(F)(F)F)cc(C(F)(F)F)c1)OCC(=O)N2`, the “activity change, negative = inhibition” value is inactive: -5.42%.

For `Cc1ccc(NC(=O)/C=C/c2ccccc2Cl)cc1Cl`, the “activity change, negative = inhibition” value is inactive: -18.7%.

With `O=C(Cn1c(=O)nc(-c2ccccc2)c2ccccc21)Nc1ccc(Cl)cc1F`, the “activity change, negative = inhibition” value is inactive: -8.48%.

Regarding `COc1ccc(NC(=O)C2=C(C)Nc3nc(SCc4ccc(Cl)cc4)nn3C2c2cccc(OC)c2OC)cc1` (stereo not drawn), the compound was classed as inactive.

For `Cc1cccc(-n2c(=O)c3ccccc3n(Cc3ccc(F)cc3)c2=O)c1`, the “activity change, negative = inhibition” value was inactive: -11.7%.

For `CCc1ccc(Nc2nc3ccccc3nc2NS(=O)(=O)c2ccccc2)cc1`, the compound was classed as inactive.

Take `COc1ccc(NC(=O)C2CCN(S(=O)(=O)c3c(C)noc3/C=C/c3cccs3)CC2)cc1Cl`: the “activity change, negative = inhibition” value is inactive: 0.492%.

Regarding `CCOc1ccc(-c2c(C)nn3c(C)c(C(=O)NCCc4ccc(C)cc4)cnc23)cc1OCC`, the “activity change, negative = inhibition” value was inactive: -19.3%.

Regarding `CCc1c(C)sc2c1CCN(Cc1ccccc1F)C2c1ccccc1` (stereo not drawn), the “activity change, negative = inhibition” value was inactive: -6.92%.

For the compound `COC(=O)Cc1c(C)c2ccc3c(c2oc1=O)CN(Cc1ccccc1Cl)CO3`, the “activity change, negative = inhibition” value is inactive: 11.2%.

As to `Cc1nc2cccnc2n1C1CCN(C(=O)Nc2ccc(Cl)cc2)CC1`, the call was inactive.

With `Cc1cc2[nH]c(=O)c(=O)[nH]c2cc1S(=O)(=O)N1CCN(c2cccc(Cl)c2)CC1`, the compound was classed as inactive.

Consider `COC(=O)Cn1c(SCCOc2ccccc2OC)nc2ccccc21`, for which the result was inactive.

Regarding `Cc1ccc(-n2cnnn2)cc1S(N)(=O)=O`, the “activity change, negative = inhibition” value is inactive: -1.58%.

On to `CCc1cc2c(cc3c(=O)n(CC(=O)NCCc4ccc(OC)cc4OC)nc(CC)n32)s1`, for which the “activity change, negative = inhibition” value is inactive: -0.905%.

Regarding `COc1ccc2[nH]cc(CCN=C(NC(=O)c3ccccc3OC)Nc3nc(C)cc(C)n3)c2c1`, the “activity change, negative = inhibition” value was inactive: -3.35%.

`CNC(=O)CN1C(=O)COc2ccc(S(=O)(=O)N3CCC(C)CC3)cc21`: the compound was classed as inactive.

For the compound `COCCNC(=O)c1ccccc1NC(=O)c1nsc2ccccc12`, the “activity change, negative = inhibition” value was inactive: -10.9%.

As for `CCSc1ncc(Cl)c(C(=O)Nc2cccc(Cl)c2)n1`, the “activity change, negative = inhibition” value was inactive: -1.57%.

In the case of `Cc1ccccc1Nc1c(-c2ccc(N3CCOCC3)cc2)nc2ccc(Br)cn12`, the “activity change, negative = inhibition” value is inactive: -14.6%.

For the compound `COc1cccc(Cn2cc(C(=O)c3ccc(Cl)cc3)c(=O)c3ccccc32)c1`, the “activity change, negative = inhibition” value is inactive: -0.446%.

In the case of `Cc1ccc(NC(=O)c2ccc(NC(=O)CCS(=O)(=O)c3cccs3)cc2)cc1F`, the “activity change, negative = inhibition” value is inactive: -23%.

`Cc1ccc(Nc2ncnc3sc4c(c23)CCC(C)C4)cc1C` (stereo not drawn): the call was inactive.

As for `COc1ccccc1N1CCN(C(=O)C2CCCN(S(=O)(=O)c3ccc4c(c3)CCCN4C(C)=O)C2)CC1` (stereo not drawn), the “activity change, negative = inhibition” value is inactive: 9.41%.

On to `COc1cc(NC(=O)CSc2nc3nc(C)c(Cc4ccccc4Cl)c(C)n3n2)cc(OC)c1`, for which the “activity change, negative = inhibition” value is inactive: -7.29%.

As for `Cc1ccc2c(=O)cc(C(=O)Nc3c(C)n(C)n(-c4ccccc4)c3=O)oc2c1`, the “activity change, negative = inhibition” value was inactive: -12.6%.

For the compound `Cc1ccc(CNC(=O)C(=O)NCC(c2ccc3c(c2)OCO3)N2CCOCC2)cc1` (stereo not drawn), the call was inactive.

Take `CCOC(=O)C1(C)C=C(Nc2cccc(C(=O)O)c2)C(=O)N1c1ccccc1` (stereo not drawn): the “activity change, negative = inhibition” value is inactive: 9.62%.

As for `COC(=O)C(CCSC)Nc1ncnc2onc(-c3ccc(F)cc3)c12` (stereo not drawn), the “activity change, negative = inhibition” value is inactive: 1.01%.

As to `CC(C)Cn1c(-c2cccc(Br)c2)nc2ccccc21`, the “activity change, negative = inhibition” value is inactive: 0.498%.

For the compound `COc1cc2nc(SCc3ccc(C)cc3)n3nc(CCn4nc(C)cc4C)nc3c2cc1OC`, the compound was classed as inactive.

Take `COc1cc(Cl)c(C)cc1NC(=O)c1cnc(N2CCCCC2)c2ccccc12`: the “activity change, negative = inhibition” value is inactive: 4.03%.

Turning to `CCCOc1ccc(CNC(=O)C(NS(=O)(=O)c2cccs2)C(C)C)cc1` (stereo not drawn), the “activity change, negative = inhibition” value was inactive: 3.81%.

Take `OCc1cnc(SCc2ccccc2F)n1Cc1ccc(F)cc1`: the “activity change, negative = inhibition” value was inactive: -4.54%.

In the case of `CCOc1ccccc1NC(=O)C(=O)Nc1ccc2nc3n(c(=O)c2c1)CCCCC3`, the “activity change, negative = inhibition” value was inactive: -8.84%.

For the compound `Cc1cc(C)cc(NC(=O)C(Cc2ccccc2)NS(=O)(=O)c2ccc3c(c2)CCC(=O)N3)c1` (stereo not drawn), the result was inactive.

`Cc1ccccc1OCc1ccc(-c2nc(C#N)c(N3CCN(c4cccc(Cl)c4)CC3)o2)o1`: the “activity change, negative = inhibition” value is inactive: 1.61%.

As for `Cc1cc(C)c(NC(=O)C2CCCN(S(=O)(=O)c3c(C)noc3C)C2)c(C)c1` (stereo not drawn), the “activity change, negative = inhibition” value was inactive: 2.46%.

As for `Cc1cc(C)cc(NC(=O)Cc2noc3ccccc23)c1`, the “activity change, negative = inhibition” value was inactive: -9.16%.

`O=C(c1ccccc1)N1c2nc(-c3ccco3)nn2C2(CCCCC2)[C@@H]2CCCC[C@@H]21`: the “activity change, negative = inhibition” value was inactive: 0.703%.

As for `CN(C(Cc1ccc(OS(=O)(=O)c2cccc3cnccc23)cc1)C(=O)N1CCN(c2ccccc2)CC1)S(=O)(=O)c1cccc2cnccc12` (stereo not drawn), the “activity change, negative = inhibition” value is inactive: -12.2%.

As for `CCC(=O)N1CCc2cc(S(=O)(=O)NCCC(=O)Nc3ccc(N(CC)CC)cc3C)ccc21`, the “activity change, negative = inhibition” value was inactive: -13.4%.

Consider `CCN(CC)S(=O)(=O)c1ccc(C(=O)NCCSc2c(-c3ccccc3)[nH]c3ccccc23)cc1`, for which the “activity change, negative = inhibition” value is inactive: -2.76%.

For the compound `CCCCCCOc1ccc(C2C(=O)N(C3CCCCC3)CC(=O)N2C2CCCCC2)cc1` (stereo not drawn), the “activity change, negative = inhibition” value is inactive: -9.63%.
